Data: PubChem BioAssay AID720708 (National Center for Advancing Translational Sciences (NCATS), 2013)
Values joined by “and” are separate entries in the source; they are usually repeats but may differ in a detail not shown here. Equal values may be shown once. About 660 (0.18%) of roughly 360,000 compounds were called active. Inconclusive results, whose numbers are uncertain, are shown with a selection of clear calls. The call rests on the fitted dose curve; in most records, active means well fitted inhibition curve with a large enough effect; inconclusive means small, poorly fitted or top-dose-only effect; inactive means no such curve, though single readings can be large or run the other way. A potency beside an inconclusive call is a rough fit, not a confirmed value.

target: Rap guanine nucleotide exchange factor 4 (Homo sapiens) (UniProt Q8WZA2); assay: qHTS for Antagonist of cAMP-regulated guanine nucleotide exchange factor 2 (EPAC2): primary screen; conditions: EPAC2 GEF exchange of Rap1B-BODIPY-GDP, fluorescence; activity, negative = inhibition: at 114 µM (top of the series) unless noted; further: nearly all actives have a fitted effect of over 45% in size
On the % scale 0 is the no-effect control and ±100 the full control effect; potency means the concentration at half of the fitted maximal effect; tags describe the fitted curve by direction and shape.

Sequence of UniProt Q8WZA2 (Q8WZA2 whole entry, looked up): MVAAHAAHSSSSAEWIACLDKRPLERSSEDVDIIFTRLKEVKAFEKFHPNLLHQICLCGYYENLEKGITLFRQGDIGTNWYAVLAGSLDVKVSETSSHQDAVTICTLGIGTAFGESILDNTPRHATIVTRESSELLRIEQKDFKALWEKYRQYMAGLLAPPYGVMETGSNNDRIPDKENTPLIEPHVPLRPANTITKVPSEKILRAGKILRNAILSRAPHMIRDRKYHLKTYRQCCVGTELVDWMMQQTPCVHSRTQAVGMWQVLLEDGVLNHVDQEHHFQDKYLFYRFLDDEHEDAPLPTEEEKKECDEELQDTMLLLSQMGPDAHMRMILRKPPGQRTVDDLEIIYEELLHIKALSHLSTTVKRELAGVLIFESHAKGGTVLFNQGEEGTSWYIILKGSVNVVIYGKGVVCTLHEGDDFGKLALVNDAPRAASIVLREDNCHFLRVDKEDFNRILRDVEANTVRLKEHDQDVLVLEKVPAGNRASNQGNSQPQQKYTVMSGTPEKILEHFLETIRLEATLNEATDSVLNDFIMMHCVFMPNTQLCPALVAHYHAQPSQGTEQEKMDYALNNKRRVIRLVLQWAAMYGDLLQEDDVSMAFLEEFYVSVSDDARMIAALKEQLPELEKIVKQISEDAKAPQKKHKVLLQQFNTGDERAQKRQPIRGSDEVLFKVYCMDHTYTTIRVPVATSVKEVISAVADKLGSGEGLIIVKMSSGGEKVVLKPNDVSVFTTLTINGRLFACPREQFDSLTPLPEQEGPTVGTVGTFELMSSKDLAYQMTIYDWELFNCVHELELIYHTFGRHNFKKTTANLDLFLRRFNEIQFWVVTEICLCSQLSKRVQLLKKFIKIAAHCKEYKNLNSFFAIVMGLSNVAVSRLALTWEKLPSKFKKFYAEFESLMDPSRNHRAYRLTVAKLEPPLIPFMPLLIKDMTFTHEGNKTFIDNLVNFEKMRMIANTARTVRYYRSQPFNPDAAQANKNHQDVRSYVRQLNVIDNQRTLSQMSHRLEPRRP

| Structure (SMILES) | Potency | activity, negative = inhibition |
| --- | --- | --- |
| CC(=O)NC(c1ccc(C(C)C)cc1)c1ccc2cccnc2c1O (configuration not stated) | inconclusive: 39.8 µM [inhibitor, partial curve] | – |
| CC1(C(=O)NCc2cccc3ccccc23)CCN1Cc1cc2ccccc2o1 (configuration not stated) | inconclusive: 31.6 µM [inhibitor, full curve] | – |
| COc1ccc(NC(=O)NS(=O)(=O)c2ccc(C)cc2)cn1 | inactive | – |
| CC(C)C(=O)N1CCCC1(C)C(=O)Nc1ccc(-n2cccc2)cc1 (configuration not stated) | inactive | – |
| CN(C)c1ccc(C=O)c(Oc2ccccc2)c1 | inconclusive: 44.7 µM [inhibitor, partial curve] | – |
| CC(=O)NNC(=O)c1sc(=S)n2c1[nH]c(=O)c1sccc12 | inconclusive: 44.7 µM [inhibitor, partial curve] | – |
| O=C(Nc1cccc(Cl)c1)OC1CCCCc2cccnc21 (configuration not stated) | inconclusive: 35.5 µM [inhibitor, partial curve] | – |
| COc1cnc(-c2ccccn2)nc1Oc1c(C)cccc1C | active: 14.1 µM | – |
| COc1ccc2c(c1)C=CC1(O2)N(CCO)c2ccccc2C1(C)C (configuration not stated) | inconclusive: 70.8 µM [inhibitor, single point] | – |
| COc1cccc(CC(=NO)c2cccc(OC)c2)c1 | inconclusive: 35.5 µM [inhibitor, partial curve, poor fit] | – |
| CC(=O)Nc1cccc(NC(=O)c2cccc3cccnc23)c1 | inconclusive: 100 µM [inhibitor, single point] | – |
| O=C1NC[C@H](c2ccccc2)N(CCc2cc(C(F)(F)F)cc(C(F)(F)F)c2)C1=O | inconclusive: 44.7 µM [inhibitor, partial curve] | – |
| Cc1ccc(NS(=O)(=O)c2ccc(C(=O)N3CC(C)CC(C)C3)cc2)cc1 (configuration not stated) | inactive | – |
| CC1(C(=O)NCc2cccc(C(F)(F)F)c2)CCN1C1Cc2ccccc2C1 (configuration not stated) | inconclusive: 44.7 µM [inhibitor, partial curve] | – |
| CCCCN(C)Cc1cc(=O)oc2ccc3ccccc3c12 | inconclusive: 50.1 µM [inhibitor, partial curve] | – |
| CC1(C)C=Cc2cc(-c3coc4cc(O)cc(O)c4c3=O)cc(O)c2O1 | inconclusive: 2.82 µM [inhibitor, full curve, poor fit] | – |
| O=C(CSC1=NCCS1)N1N=C(c2cccs2)CC1c1ccc(F)cc1 (configuration not stated) | inconclusive: 17.8 µM [inhibitor, full curve] | – |
| O=C(O)COCC(=O)Nc1ccc(-n2nc(C(F)(F)F)cc2-c2cccs2)cc1 | inconclusive: 79.4 µM [inhibitor, partial curve] | – |
| COc1ccc(CCNC(=O)CN(c2ccc(OC)c(OC)c2)S(=O)(=O)c2ccccc2)cc1OC | inconclusive: 25.1 µM [inhibitor, single point] | – |
| O=C(c1ccco1)N(Cc1ccc([N+](=O)[O-])cc1)c1ccc(Cl)cc1 | inconclusive: 39.8 µM [inhibitor, partial curve] | – |
| Cc1nc2oc3ccc(F)cc3c(=O)c2cc1C(=O)NC(C)(C)C | inconclusive: 15.8 µM [inhibitor, single point] | – |
| COc1ccc(-c2ccc(-c3noc(-c4ccccc4C)n3)c(OC)n2)cc1 | inactive | – |
| CCN(CC)C(=O)OCc1c(-c2cccc(OC)c2)ncc2ccccc12 | inconclusive: 7.94 µM [inhibitor, full curve, poor fit] | – |

| Structure (SMILES) | Potency | activity, negative = inhibition |
| --- | --- | --- |
| COc1ccc(CN2C(=O)C(CC(C)C)Nc3ncnc(N4CCN(c5ccccc5)CC4)c32)cc1 (configuration not stated) | inconclusive: 31.6 µM [inhibitor, full curve] and inconclusive: 7.94 µM [inhibitor, full curve] | – |
| CCn1c2ccccc2c2nc3cc(OC)c(OC)cc3nc21 | inconclusive: 28.2 µM [inhibitor, partial curve] | – |
| Nc1cc2nn(-c3ccccc3)nc2cc1Cl | inactive | – |
| C/C(=N\NC(=O)CSCc1ccc([N+](=O)[O-])cc1)c1ccccc1 | inconclusive: 22.4 µM [inhibitor, single point] | – |
| CCOC(=O)c1c(-c2ccc(OC)cc2)csc1NC(=O)CSc1nnc(C)c(=O)[nH]1 | inconclusive: 44.7 µM [inhibitor, partial curve] | – |
| C/C(=N\NC(=S)NCc1ccccc1)c1ccc2c(c1)OCCO2 | inactive | – |
| COc1ccc(CN2[C@@H](CC(C)=O)c3cc(C(F)(F)F)ccc3S2(=O)=O)cc1 | inconclusive: 56.2 µM [inhibitor, partial curve] | – |
| COc1ccc(-c2nc3ccc(Br)cn3c2Cc2ccccc2C(F)(F)F)cc1OC | – | inconclusive: -31.5% [inhibitor] |
| CC(Oc1ccc(Cl)cc1)c1ccc(C#N)c(=O)[nH]1 (configuration not stated) | inconclusive: 44.7 µM [inhibitor, partial curve] | – |
| O=[N+]([O-])c1ccc(NS(=O)(=O)c2ccc(Cl)c(Cl)c2)cc1 | inconclusive: 44.7 µM [inhibitor, partial curve] | – |
| C(=C\c1ccccc1)/CN1CCN(C(c2ccnc3ccccc23)c2nnnn2-c2ccc3c(c2)OCCO3)CC1 (configuration not stated) | inconclusive: 100 µM [inhibitor, single point] | – |
| CC(C)n1c(SCC(N)=O)nc2c1c(=O)[nH]c(=O)n2C | inactive | – |
| COc1cc(C2NC(=S)NC(C)=C2C(=O)c2ccccc2)ccc1O (configuration not stated) | inactive | – |
| O=C1C=C(c2ccc(F)cc2OCc2ccccc2)C[C@@H](c2ccc(Cl)cc2)C1 | inconclusive: 2.82 µM [inhibitor, full curve, poor fit] | – |
| O=C1C(=Cc2ccccc2Cl)CCc2ccccc21 | active: 35.5 µM | – |
| Cc1ccc(NC(=O)CCC(=O)NNC(=S)Nc2ccccc2)c(C)c1 | inactive | – |
| CSc1nc(Nc2ccc(Cl)cc2)c(C#N)c(=O)[nH]1 | inactive | – |
| CC(Oc1ccc(Cl)cc1)c1ccn[nH]1 (configuration not stated) | inconclusive: 44.7 µM [inhibitor, partial curve] | – |
| CCOC(=O)C(C)n1cnc2scc(-c3ccc(C)c(C)c3)c2c1=O (configuration not stated) | inconclusive: 50.1 µM [inhibitor, partial curve] | – |
| COc1cccc(CNc2nc(C(F)(F)F)nc3ccccc23)c1 | inconclusive: 50.1 µM [inhibitor, partial curve] | – |
| N/C(Cc1ccc([N+](=O)[O-])cc1)=N\OC(=O)c1cccc(Br)c1 | inconclusive: 22.4 µM [inhibitor, single point] | – |
| CCOc1cc(N2CCOCC2)c(OCC)cc1NC(C)C(=O)N1CCC(C)CC1 (configuration not stated) | inactive | – |
| O=C(OCn1ncc(Cl)c(Cl)c1=O)c1ccccc1Cl | inconclusive: 56.2 µM [inhibitor, partial curve] | – |

| Structure (SMILES) | Potency | activity, negative = inhibition |
| --- | --- | --- |
| Cc1cc(C)c2cc(C(=O)N3CCN(c4ncccc4C(F)(F)F)CC3)[nH]c2c1 | inconclusive: 56.2 µM [inhibitor, partial curve] | – |
| CSc1cccc(NC(=O)Cc2ccccc2[N+](=O)[O-])c1 | inconclusive: 2.82 µM [inhibitor, full curve, poor fit] | – |
| CCOC(=O)N1CCN(C(=O)C(C)(C)Oc2ccc(Cl)cc2)CC1 | inconclusive: 12.6 µM [inhibitor, partial curve] | – |
| Cc1ccc(N2C(=O)N(CC(=O)NC(N)=O)C(=O)C2C)cc1 (configuration not stated) | inconclusive: 100 µM [inhibitor, single point] | – |
| COc1cccc(C(O)c2ncc(-c3ccc(Cl)cc3)[nH]2)c1 (configuration not stated) | inconclusive: 44.7 µM [inhibitor, partial curve] | – |
| Cc1cc(C)c(NC(=O)/C(=C/c2ccco2)c2ccccc2)c(C)c1 | inconclusive: 79.4 µM [inhibitor, partial curve] | – |
| CC(C)Oc1cc(F)ccc1-c1cc(C(=O)Nc2ccc(C(C)C)cc2)[nH]n1 | inconclusive: 22.4 µM [inhibitor, single point] | – |
| CCCCCCCCNC(C)C(O)c1ccc(SC(C)C)cc1 (configuration not stated) | inconclusive: 50.1 µM [inhibitor, single point] | – |
| Cc1c(NC(=S)NC(=O)c2ccc(COc3ccccc3)cc2)cccc1C(=O)O | inactive | – |
| Cc1ccc(NC(=S)NCCSc2ccc(Cl)cc2)cc1 | inconclusive: 2.82 µM [inhibitor, full curve, poor fit] | – |
| Cc1ccc(Nc2cc(C)c3ccc(O)cc3n2)cc1C | inconclusive: 39.8 µM [inhibitor, single point] | – |
| OC1(c2ccc(F)cc2)CSC(=Nc2cccnc2)N1Cc1ccco1 (configuration not stated) | inconclusive: 79.4 µM [inhibitor, partial curve] | – |
| Cc1ccc(S(=O)(=O)Nc2cc(C(F)(F)F)ccc2N2CCOCC2)cc1C | inconclusive: 22.4 µM [inhibitor, full curve, poor fit] | – |
| O=C(CN1CCCC1)Nc1ccccc1Sc1ccccc1 | inconclusive: 56.2 µM [inhibitor, partial curve] | – |
| Cc1ccc2nc(C3CCCCC3)c(Cc3cccc(Cl)c3)n2c1 | inconclusive: 31.6 µM [inhibitor, partial curve] | – |
| Cc1ccc(C(=O)NC(=S)NNC(=O)COc2ccc([N+](=O)[O-])cc2)cc1 | inactive | – |
| Cc1nn(-c2ccccc2)c2c1C(O)CC(C)(C)C2 (configuration not stated) | inconclusive: 89.1 µM [inhibitor, single point] | – |
| CCCCCC1C/C(=N\O)C=C(C)C1C(=O)OC (configuration not stated) | inconclusive: 17.8 µM [inhibitor, full curve] | – |
| CN(CC(=O)NC(=O)NC1CCCCC1)CC(=O)Nc1ccc(OC(F)(F)F)cc1 | inconclusive: 50.1 µM [inhibitor, partial curve] | – |
| CCn1cc(C(=O)OCC(=O)N2C(C)CCCC2C)c(=O)c2ccc(C)nc21 (configuration not stated) | inactive | – |
| CC(=O)Nc1ccc(C2=CC(=O)C[C@H](c3ccc(Cl)cc3)C2)cc1 | inconclusive: 35.5 µM [inhibitor, partial curve] | – |
